Read counts are not given, so values of variants with three or more changes are uncertain.
B1: CPEB3 Ribozyme (parent)
chain: UAACAGGGGGCCACAGCAGAAGCGUUCACGUCGCAGCCCCUGUCAGAUUCUGGUGAAUCUGCGAAUUCUGCUGUAUAUCUC

Variants of: B1
Experiment: self-cleavage, relative activity (ratio to wild type); higher = more cleavage; in vitro, sequencing
Method in brief: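 After error-prone PCR and barcoding, CPEB3 ribozyme mutant libraries were transcribed with T7 RNA polymerase at 37°C for 5 hours, then given 15 min with DNase I before an EDTA stop, and they cleaved during both steps. Reverse transcription with template switching preceded Illumina sequencing. Relative activity divides a variant's cleaved/total read fraction by the unmutated ribozyme's. At least 5 reads were required per variant, and three batches were averaged.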

Variant	self-cleavage
UAACAGGGGGCCACAGUAGAAGCGUUCACGUCGCAGCCCCUGUCAGAUUCUGGUGAAUCUGCGAAUUCCGCUGUAUCUCUC [C17U U69C A77C]	0.1
UAACAGGGGGCCACAGCCGCAGCCUUCACGUCGCAGCCCCUGUCAGAUUCUGGUGAAUCUUCGAGUUCUGCUGUAUAUCUC [A18C A20C G24C G61U A65G]	0.04
UAACAGGGGGCCACAGCCGGAGCGUUCACGUCGCUGCCCCAGUCAGAUUCUGGUGAAUCUGCGAAUUCUGCUGUAUAUCUC [A18C A20G A35U U41A]	0.32
UAACAGGGGGCCACAGCCGGAGCGUUCACAUCGCUGCCCAUGCCAGAUUCUGGUGAAUCUGCGAGUUCUGCUGUAUAUCUC [A18C A20G G30A A35U C40A U43C A65G]	0.15
UAACAGGGGGCCACAGCCGGAGCGUUCACGUCACAGCCCCUGUCAGACCCUGGUGAAACUGUGAAUUCUGCUGUAUAUCUC [A18C A20G G33A U48C U49C U58A C62U]	0.04
UAACAGGGGGCCACAGCCGGAGCGCUCACGUCGCAGCCCCUGUCAGAUUCUGGUGAAUCUGCGAAUUCUGCUGUAUAUCUC [A18C A20G U25C]	0.09
UAACAGGGGGCCACAGCCGGAGCGCUCACGUCGCAGCUCCUGUCAGAUUCUGGUGAAUCUGAGAGUUCGGCUGUAUAUCUC [A18C A20G U25C C38U C62A A65G U69G]	0.1
UAACAGGGGGCCACAGCCGGAGCGUUCACGUCGCAGCCCCCGUCAGGUUCUGGUGAAUCUGCGAAUUCUGCUGUAUAUCUC [A18C A20G U41C A47G]	0.39
UAACAGGGGGCCACAGCCGGAGCGUUCACGUCGCAGCCCCUGUCAGAUUCAGGUGAAUCUGCGAAUUCUGCUGUAUAUCCC [A18C A20G U51A U80C]	0.16
UAACAGGGGGCCACAGCCGGAGCGUUCACGUCGCAGCCCCUGUCAGAUUCUGGUGAAUCUGCGAAUUCUGCAGUAUACCUC [A18C A20G U72A U78C]	0.11
UAACAGGGGGCCACAGCCGAGGCGUUCGCGUCGCAGCCCCUGUCAGAUUCUGGUGAAUCCACGAAUUCUGCUGUAUAUCUC [A18C A21G A28G U60C G61A]	0.05
UAACAGGGGGCCACAGCCGAGGCGUUCACGUCGCAGCCCCUGUCAGAUUCUGGUGAAUCUGAGAAUUCUGCCGUAUAUCUC [A18C A21G C62A U72C]	0.19
UAACAGGGGGCCACAGCCGAGGCGUUCACGUCGCAGCCCCUGUCAGACUCUGGUGAAUCAGCGAAUUCUGCUGUAUAUCUC [A18C A21G U48C U60A]	0.12
UAACAGGGGGCCACAGCCGAUGCGCUCAUGUCGCAGCCCCUGUCAGAUCCUGGUGAAUCUGCGAAUUCUGCUGUAUAUCUC [A18C A21U U25C C29U U49C]	0.05
UAACAGGGGGCCACAGCCGAUGCGUUCACGUCGCAGCCCCUGUCAGAUUCUGGUGAAUCAGCGAAUUCUGCUGUAUAUCUC [A18C A21U U60A]	0.14
UAACAGGGGGCCACAGCCGAAGCGUUCGCGUCGCAGCCCCUGUCAGAUUCUGGUGAAUCUGCGAAUUCUGCUGUAUAUCAC [A18C A28G U80A]	0.31
UAACAGGGGGCCACAGCCGAAGCGUUCUCGUAGCAGCCCCUGUCAGAUUCUGGUGAAUCCGCGAAUUCAGCUGUAUAUCUC [A18C A28U C32A U60C U69A]	0.08

Variant	self-cleavage
UAACAGGGGGCCACAGCCGAAGCGUUCUCGUCGCACCCCCUGUCAGAUUCUGGUGAAUCUGCGAAUUCUGCCGUAUAUCUG [A18C A28U G36C U72C C81G]	0.06
UAACAGGGGGCCACAGCCGAAGCGUUCUCGUCGCAGCCCCUGCCAGAUUCAGGUGAAUCUGCGAAUUUUGCUGUAUAUCUC [A18C A28U U43C U51A C68U]	0.4
UAACAGGGGGCCACAGCCGAAGCGUUCUCGUCGCAGCCCCUGUCAGAUUCUGGUGAAUCUGCGAAUUCUGCUGUACAUCUC [A18C A28U U76C]	0.12
UAACAGGGGGCCACAGCCGAAGCGUUCACGUCGCGGCCCCUGUCUGAUUCCGGUGAAUCUGCGAAUUCAGCUGUAUAUCUC [A18C A35G A45U U51C U69A]	0.26
UAACAGGGGGCCACAGCCGAAGCGUUCACGUCGCGGCCCCUGUCAGAUUCUGGUGAAUCUGCGAAUUCUGCAGUAUAUCUC [A18C A35G U72A]	0.15
UAACAGGGGGCCACAGCCGAAGCGUUCACGUCGCAGCCCCUGUCGGAUUCAGGCGAACCUGCGAAUUCUGCUGUAUAUCUA [A18C A45G U51A U54C U58C C81A]	0.12
UAACAGGGGGCCACAGCCGAAGCGUUCACGUCGCAGCCCCUGUCGGAUUCUGGUGAAUCUGCGAAAUCUGCUGUAUAUCUC [A18C A45G U66A]	0.31
UAACAGGGGGCCACAGCCGAAGCGUUCACGUCGCAGCCCCUGUCGGAUUCUGGUGAAUCUGCGAAUUCUGCAGUAUAUCUC [A18C A45G U72A]	0.17
UAACAGGGGGCCACAGCCGAAGCGUUCACGUCGCAGCCCCUGUCUGAUUCCGGUGAAUCUGCGAAUUCUGCUGUAUACCUC [A18C A45U U51C U78C]	0.24
UAACAGGGGGCCACAGCCGAAGCGUUCACGUCGCAGCCCCUGUCUGAUUCUGGCGAAACUGCGAAUUCUGCUGUAUACCUC [A18C A45U U54C U58A U78C]	0.05
UAACAGGGGGCCACAGCCGAAGCGUUCACGUCGCAGCCCCUGUCUGAUUCUGGUGAAUCUGCGAAUUCUGCCGUAUAUCUC [A18C A45U U72C]	0.25
UAACAGGGGGCCACAGCCGAAGCGUUCACGUCGCAGCCCCUGUCAGGUUCUGGUGAAUCUGCGAGUUCUGCUGUAUAUCUC [A18C A47G A65G]	0.2
UAACAGGGGGCCACAGCCGAAGCGUUCACGUCGCAGCCCCUGUCAGGUUCUGGUGAAUCUGCGAAUUCUGCUGUUUAUCUC [A18C A47G A75U]	0.19
UAACAGGGGGCCACAGCCGAAGCGUUCACGUCGCAGCCCCUGUCAGGUUCUGGCGAAUCUGCGAAUUCUGCUGUAUAUCUC [A18C A47G U54C]	0.28
UAACAGGGGGCCACAGCCGAAGUGUUCACGCCGCAGCCCCUGUCUGAUUCUGGUGAAUCCGCGAAUCCUGCUGUAUACCUC [A18C C23U U31C A45U U60C U67C U78C]	0.04
UAACAGGGGGCCACAGCCGAAGCGUUCAUGUCGCAGCCCCCGUCAGAUUCUGGUGGAUCUGUGAAUUCUGCGGUGUAUCUC [A18C C29U U41C A56G C62U U72G A75G]	0.11
UAACAGGGGGCCACAGCCGAAGCGUUCACGUCGUAUCCCCUGUCAGAUUCUGGUGAAUCUGCGUAUUCUGCUGUAUAUCUC [A18C C34U G36U A64U]	0.21

— the RNAGym collection of RNA variant scans (doi:10.1093/nar/gkz1192)
